This passage reports activity change, negative = inhibition results from PubChem BioAssay AID1745853 (National Center for Advancing Translational Sciences (NCATS), 2022).

Common to all, as to test: Primary Screen for Target Class Profiling of Small Molecule Inhibitors of Methyltransferases
The target in assay [1] is Glycine N-methyltransferase (Homo sapiens) (UniProt Q14749). As to conditions: purified enzyme, MTase-Glo SAH luminescence; measured here: GNMT inhibition; at 40 µM; stronger effect = lower value. An excerpt: (§1) PI: Matthew D. Hall Ph.D. and Quinlin M. Hanson Ph.D.
(§2) National Center for Advancing Translational Sciences (NCATS)
(§3) National Institute of Health (NIH), Rockville, MD
(§4) Target class profiling (TCP) is a chemical biology approach amenable to investigating understudied biological targets. TCP is achieved by developing a generalizable assay platform and applying it to screen a curated set of compound libraries against representative members of a target class. Small molecule methyltransferases (SMMTase) are a subclass of methyltransferase that act on metabolites to modulate signaling pathways, metabolize xenobiotics, or balance the available methyl pool. We screened four curated libraries totaling 27,574 unique compounds against the SMMTases nicotinamide N-methyltransferase (NNMT), phenylethanolamine N-methyltransferase (PNMT), histamine N-methyltransferase (HNMT), glycine N-methyltransferase (GNMT), catechol O-methyltransferase (COMT), and guanidinoacetate N-methyltransferase (GAMT). The data generated by this TCP can be leveraged for informed tool molecule development. For example, in the associated publication we identified a chemotype of HNMT-selective inhibitors. Additionally, we identified a putative SMMTase-selective inhibitor with potential as a tool molecule for studying broader methyltransferase biology.
(§5) High-through put screening assays were developed at the National Center for Advancing Translational Science (NCATS) for the enzymes NNMT, PNMT, HNMT, GNMT, COMT, and GAMT. Enzymatic activity was measured as a function of SAM cofactor conversion using the MTase Glo kit (Promega) for all enzymes. All assays were performed in 1536-well format with substrates and SAM concentrations at KM values. Enzyme concentration and assay timing were optimized for 10-20% SAM conversion. Initial screening of 27,574 compounds was done as single-point assays using the highest compound concentration (40 uM). […] These compounds were replated in 11-point dose response and assayed against NNMT, PNMT, HNMT, GNMT, COMT, GAMT, and a counter-assay. The IC50 and efficacy (maximal response) values were determined for each dose-response curve. These values are also accounted for in the area under the curve (AUC) values.
(§6) PROTOCOL TABLE (as described by Inglese J, Shamu CE and Guy RK. 2007)
(§7) SEQUENCE No. (e.g., 1, 2, 3, etc.); […] (e.g., Cells, Incubation, Reagent, etc.); VALUE; DESCRIPTION.
(§8) 1; Reagent; 2 uL; SMMTase Enzyme (2x) in reaction buffer, columns 1- 48.
(§9) 2; Reagent; 1 uL; SAM (4x) in reaction buffer, columns 1-48.
(§10) 3; Controls; 23 nL; DMSO in column 4; sinefungin in DMSO (0 uM - 40 uM) in 7-point 1:2 dilution series (n = 2) in column 2.
(§11) 4; Compounds; 23 nL; Columns 5-48.
(§12) 5; Reagent; 1 uL; Substrate (4x) in reaction buffer, columns 2-48.
(§13) 6; Time; 20-30 min; Incubation.
(§14) 7; Reagent; 1 uL; MTase-Glo reagent (5X), columns 1-48.
(§15) 8; Time; 30 min; Incubation.
(§16) 9; Reagent; 5 uL; MTase-Glo Detection reagent, columns 1-48.
(§17) 10; Time; 30 min; Incubation, luminescence evolution.
(§18) 11; Detection; Luminescence; ViewLux uHTS Microplate Imager (PerkinElmer).
(§19) NOTES (numbers refer to Sequence numbers above)
(§20) 1, 2, 5. White Medium Binding Greiner 1536-well plates (Cat #789175-F, Greiner Bio-One, Monroe, NC); Reaction buffer: 50 mM Tris, pH 8.0, 3 mM MgCl2, 1 mM EDTA, 50 mM NaCl, 1 mM DTT, and 0.1 mg/mL BSA. Evaporation was prevented by covering assay plates with metal lids containing holes to allow gas diffusion.
(§21) 1. Six SMMTase were profiled: HNMT, GNMT, PNMT, COMT, NNMT, GAMT
(§22) 5. The corresponding substrate was used for each enzyme: HNMT - 5.3 uM Histamine; GNMT - >500 uM Glycine; PNMT - 16.2 uM Norephinephrine; COMT - 13.7 uM Norephinephrine; NNMT - 3.8 uM Nicotinamide; GAMT - 2.5 uM Guanidinoacetate.6, 8, 10. Room temperature
(§23) 6. Final reaction conditions: 10 nM COMT, 5 uM SAM, 15 uM norepinephrine, 50 mM Tris, pH 8.0, 3 mM MgCl2, 1 mM EDTA, 50 mM NaCl, 1 mM DTT, and 0.1 mg/mL BSA; refer to tables 2 and S1 for specific timing.
8. […]

In assay [2] the target is Guanidinoacetate N-methyltransferase (Homo sapiens) (UniProt Q14353). As to conditions: purified enzyme, MTase-Glo SAH luminescence; measured here: GAMT inhibition; at 40 µM; stronger effect = lower value.
Excerpt: as §1, §2, §3, §4, §5, §6, §7, §8, §9, §10, §11, §12, §13, §14, §15, §16, §17, §18, §19, §20, §21, §22, §23
8. […]

In assay [3] the target is Histamine N-methyltransferase (Homo sapiens) (UniProt P50135). As to conditions: purified enzyme, MTase-Glo SAH luminescence; measured here: HNMT inhibition; at 40 µM; stronger effect = lower value.
Excerpt: as §1, §2, §3, §4, §5, §6, §7, §8, §9, §10, §11, §12, §13, §14, §15, §16, §17, §18, §19, §20, §21, §22, §23
8. […]

Assay [4] concerns the target Nicotinamide N-methyltransferase (Homo sapiens) (UniProt P40261). As to conditions: purified enzyme, MTase-Glo SAH luminescence; measured here: NNMT inhibition; at 40 µM; stronger effect = lower value.
Excerpt: as §1, §2, §3, §4, §5, §6, §7, §8, §9, §10, §11, §12, §13, §14, §15, §16, §17, §18, §19, §20, §21, §22, §23
8. […]

In assay [5] the target is Phenylethanolamine N-methyltransferase (Homo sapiens) (UniProt P11086). As to conditions: purified enzyme, MTase-Glo SAH luminescence; measured here: PNMT inhibition; at 40 µM; stronger effect = lower value.
Excerpt: as §1, §2, §3, §4, §5, §6, §7, §8, §9, §10, §11, §12, §13, §14, §15, §16, §17, §18, §19, §20, §21, §22, §23
8. […]

This is one part of the list. Further columns of the screen follow, without active or inactive calls.
% is set by controls: 0 for no effect and ±100 for the full control effect.

Regarding `O=C(Nc1cccnn1)N1CCC(=Cc2cccc(Oc3ccc(C(F)(F)F)cn3)c2)CC1`, the activity change, negative = inhibition in assay [1] is -2%; in assay [2], 2.37%; in assay [3], 9.74%; in assay [4] it was -26.1%; in assay [5], 0.602%.

Take `CN(C)[C@@H]1CN(C(=O)C2CCCCC2)CC[C@@H]1CO`: the activity change, negative = inhibition was 4.77% in assay [1]; 2.44% in assay [2]; 2.48% in assay [3]; -0.797% in assay [4]; -2.07% in assay [5].

For `CC1=C(C)C(=O)OC(C(C)(O)C2CCC3C4CC=C5CC(OC6OC(COC7OC(CO)C(O)C(O)C7O)C(O)C(O)C6O)CC(O)C5(C)C4CCC32C)C1` (stereo not given), the activity change, negative = inhibition in assay [1] was 2.16%; in assay [2] it was -3.94%; in assay [3], 8.73%; in assay [4] it was -14.9%; in assay [5] it was -2.07%.

Consider `CC/C=C\CCO[C@@H]1O[C@H](CO)[C@@H](O)[C@H](O)[C@H]1O`, for which the activity change, negative = inhibition in assay [1] was -4.03%; in assay [2], -6.81%; in assay [3] it was 6%; in assay [4], -18.6%; in assay [5], -5.75%.

Consider `O=C(Nc1cc(C(F)(F)F)cc(C(F)(F)F)c1)c1cc(Cl)ccc1O`, for which the activity change, negative = inhibition in assay [1] was -19.2%; in assay [2] it was 3.59%; in assay [3], 7.42%; in assay [4], -13.9%; in assay [5] it was 3.52%.

For the compound `CCN1CCN(c2nc3c(S(=O)(=O)c4ccc(C)cc4)nnn3c3ccccc23)CC1`, the activity change, negative = inhibition was -0.386% in assay [1]; 4.53% in assay [2]; -32.4% in assay [3]; 1.55% in assay [4]; 3.21% in assay [5].

As to `Cc1cccc(N2C(=O)c3cc(C(C)(C)C)nn3CC2(C)C(=O)NCc2ccccc2)c1C` (stereo not given), the activity change, negative = inhibition stood at 4.89% in assay [1]; 0% in assay [2]; 4.18% in assay [3]; 7.11% in assay [4]; 1.86% in assay [5].

As for `CCCCCC(=O)N(c1ccc(OCC)cc1)S(=O)(=O)c1ccc2c(c1)n(C)c(=O)n2C`, the activity change, negative = inhibition in assay [1] is 3.64%; in assay [2] it was 2.96%; in assay [3], 8.3%; in assay [4] it was -3.71%; in assay [5], 3.83%.

In the case of `COc1ccc(N2CCN(C(=O)c3cc4c(s3)-c3ccccc3S(=O)(=O)C4)CC2)cc1`, the activity change, negative = inhibition in assay [1] was -3.05%; in assay [2], -14.4%; in assay [3], 3.05%; in assay [4], -28.2%; in assay [5] it was -13.6%.

`CCOC(=O)c1cc2n(n1)CC(C)(C(=O)NCCOC)N(c1cccc(F)c1)C2=O` (stereo not given): the activity change, negative = inhibition was 7.74% in assay [1]; 0% in assay [2]; 11% in assay [3]; 5.72% in assay [4]; 5.82% in assay [5].

With `CCN1CCN(C(=O)C2CCCN(Cc3cccnc3)CCC(=O)NCC2)CC1` (stereo not given), the activity change, negative = inhibition in assay [1] is -1.89%; in assay [2], 0.863%; in assay [3], 0.528%; in assay [4], 4.88%; in assay [5], 1.15%.

Regarding `C/C=C/C=C/C=C/C(=O)O[C@@H]1[C@@H](OC)C2=C(C(=O)N(C(CCC(=O)O)C(=O)O)C2)[C@@]2(C)CCCC(C)(C)[C@H]12` (stereo not given in full), the activity change, negative = inhibition in assay [1] was -14.5%; in assay [2] it was -3.82%; in assay [3] it was 6.26%; in assay [4], -13.3%; in assay [5] it was 0.939%.

As for `Cc1nnc([C@@H]2CC(F)(F)CN2C(=O)COc2ccccc2)o1`, the activity change, negative = inhibition was -0.79% in assay [1]; -0.774% in assay [2]; 2.65% in assay [3]; -8.84% in assay [4]; 1.04% in assay [5].

As to `Cc1ccc(NC(=O)CSc2nnc3n(CCC(C)C)c(=O)c4ccccc4n23)cc1`, the activity change, negative = inhibition is -1.81% in assay [1]; 0% in assay [2]; 5.77% in assay [3]; -1.2% in assay [4]; 3.59% in assay [5].

In the case of `CC(=O)OC1C(c2ccccc2)CCC(c2ccccc2)C1OC(C)=O` (stereo not given), the activity change, negative = inhibition in assay [1] is 0%; in assay [2], 6.51%; in assay [3], 7.78%; in assay [4] it was -6.91%; in assay [5], 2.23%.

`CN1CCC(C(=O)NCc2c[nH]c3ncccc23)CC1`: the activity change, negative = inhibition in assay [1] is -5.17%; in assay [2], -6.36%; in assay [3], -13.5%; in assay [4], -9.6%; in assay [5] it was -2.38%.
